# Experimental data: publication PMC11699347
# By UniProt entry, the sequences of proteins in these tests, tags left out. Where a name states a change or a piece, a line headed by the entry shows the natural chain unless it says otherwise. Residues count along the entry.
# UniProt Q9BYV9: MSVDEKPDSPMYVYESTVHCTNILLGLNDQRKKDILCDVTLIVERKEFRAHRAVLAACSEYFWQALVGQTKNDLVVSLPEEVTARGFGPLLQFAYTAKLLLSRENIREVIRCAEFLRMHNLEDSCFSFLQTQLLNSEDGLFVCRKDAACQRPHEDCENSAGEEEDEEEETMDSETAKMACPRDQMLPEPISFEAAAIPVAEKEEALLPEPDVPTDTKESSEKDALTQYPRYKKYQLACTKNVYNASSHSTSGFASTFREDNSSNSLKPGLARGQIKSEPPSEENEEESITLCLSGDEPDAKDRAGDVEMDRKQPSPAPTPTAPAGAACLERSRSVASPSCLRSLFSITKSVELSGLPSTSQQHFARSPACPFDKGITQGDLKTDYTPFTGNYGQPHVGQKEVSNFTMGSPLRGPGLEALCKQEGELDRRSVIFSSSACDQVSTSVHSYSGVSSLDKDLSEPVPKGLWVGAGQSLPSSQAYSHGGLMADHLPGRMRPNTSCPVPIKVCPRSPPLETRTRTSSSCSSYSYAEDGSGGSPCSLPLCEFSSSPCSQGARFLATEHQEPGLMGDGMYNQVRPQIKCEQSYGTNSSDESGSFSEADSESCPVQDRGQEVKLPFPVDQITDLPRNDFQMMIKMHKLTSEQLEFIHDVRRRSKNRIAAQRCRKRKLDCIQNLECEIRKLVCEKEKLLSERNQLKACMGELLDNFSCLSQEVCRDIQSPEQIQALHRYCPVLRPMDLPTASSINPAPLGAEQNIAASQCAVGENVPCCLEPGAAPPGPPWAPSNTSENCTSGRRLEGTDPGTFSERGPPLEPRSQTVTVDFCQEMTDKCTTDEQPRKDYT
# hBACH2 BTB GAL4-DBD fusion (pFN26AhBACH2-BTB): residues 1-128 of Q9BYV9
# UniProt P97303: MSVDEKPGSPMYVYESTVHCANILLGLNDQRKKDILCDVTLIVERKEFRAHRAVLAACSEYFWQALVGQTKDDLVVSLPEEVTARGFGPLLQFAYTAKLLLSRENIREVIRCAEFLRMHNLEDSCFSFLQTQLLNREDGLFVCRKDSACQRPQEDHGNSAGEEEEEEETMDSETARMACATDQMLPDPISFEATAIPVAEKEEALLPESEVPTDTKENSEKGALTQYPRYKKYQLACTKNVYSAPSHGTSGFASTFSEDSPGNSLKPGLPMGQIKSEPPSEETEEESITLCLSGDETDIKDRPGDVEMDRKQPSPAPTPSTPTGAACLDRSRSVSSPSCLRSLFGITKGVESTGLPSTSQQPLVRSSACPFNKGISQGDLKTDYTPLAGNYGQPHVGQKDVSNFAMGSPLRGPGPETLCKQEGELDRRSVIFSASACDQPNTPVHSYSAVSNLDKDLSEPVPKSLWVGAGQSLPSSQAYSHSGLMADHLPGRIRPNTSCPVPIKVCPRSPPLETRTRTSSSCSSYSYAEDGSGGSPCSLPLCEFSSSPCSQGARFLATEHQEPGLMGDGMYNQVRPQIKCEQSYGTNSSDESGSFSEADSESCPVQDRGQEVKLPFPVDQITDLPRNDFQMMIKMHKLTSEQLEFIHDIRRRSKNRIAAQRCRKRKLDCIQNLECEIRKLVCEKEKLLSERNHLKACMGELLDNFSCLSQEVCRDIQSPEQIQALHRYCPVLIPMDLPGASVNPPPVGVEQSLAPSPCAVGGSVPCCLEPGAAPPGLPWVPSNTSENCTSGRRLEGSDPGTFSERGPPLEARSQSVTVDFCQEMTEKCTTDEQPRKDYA
# GST-BACH2-IDR: residues 331-520 of P97303
# UniProt O75376: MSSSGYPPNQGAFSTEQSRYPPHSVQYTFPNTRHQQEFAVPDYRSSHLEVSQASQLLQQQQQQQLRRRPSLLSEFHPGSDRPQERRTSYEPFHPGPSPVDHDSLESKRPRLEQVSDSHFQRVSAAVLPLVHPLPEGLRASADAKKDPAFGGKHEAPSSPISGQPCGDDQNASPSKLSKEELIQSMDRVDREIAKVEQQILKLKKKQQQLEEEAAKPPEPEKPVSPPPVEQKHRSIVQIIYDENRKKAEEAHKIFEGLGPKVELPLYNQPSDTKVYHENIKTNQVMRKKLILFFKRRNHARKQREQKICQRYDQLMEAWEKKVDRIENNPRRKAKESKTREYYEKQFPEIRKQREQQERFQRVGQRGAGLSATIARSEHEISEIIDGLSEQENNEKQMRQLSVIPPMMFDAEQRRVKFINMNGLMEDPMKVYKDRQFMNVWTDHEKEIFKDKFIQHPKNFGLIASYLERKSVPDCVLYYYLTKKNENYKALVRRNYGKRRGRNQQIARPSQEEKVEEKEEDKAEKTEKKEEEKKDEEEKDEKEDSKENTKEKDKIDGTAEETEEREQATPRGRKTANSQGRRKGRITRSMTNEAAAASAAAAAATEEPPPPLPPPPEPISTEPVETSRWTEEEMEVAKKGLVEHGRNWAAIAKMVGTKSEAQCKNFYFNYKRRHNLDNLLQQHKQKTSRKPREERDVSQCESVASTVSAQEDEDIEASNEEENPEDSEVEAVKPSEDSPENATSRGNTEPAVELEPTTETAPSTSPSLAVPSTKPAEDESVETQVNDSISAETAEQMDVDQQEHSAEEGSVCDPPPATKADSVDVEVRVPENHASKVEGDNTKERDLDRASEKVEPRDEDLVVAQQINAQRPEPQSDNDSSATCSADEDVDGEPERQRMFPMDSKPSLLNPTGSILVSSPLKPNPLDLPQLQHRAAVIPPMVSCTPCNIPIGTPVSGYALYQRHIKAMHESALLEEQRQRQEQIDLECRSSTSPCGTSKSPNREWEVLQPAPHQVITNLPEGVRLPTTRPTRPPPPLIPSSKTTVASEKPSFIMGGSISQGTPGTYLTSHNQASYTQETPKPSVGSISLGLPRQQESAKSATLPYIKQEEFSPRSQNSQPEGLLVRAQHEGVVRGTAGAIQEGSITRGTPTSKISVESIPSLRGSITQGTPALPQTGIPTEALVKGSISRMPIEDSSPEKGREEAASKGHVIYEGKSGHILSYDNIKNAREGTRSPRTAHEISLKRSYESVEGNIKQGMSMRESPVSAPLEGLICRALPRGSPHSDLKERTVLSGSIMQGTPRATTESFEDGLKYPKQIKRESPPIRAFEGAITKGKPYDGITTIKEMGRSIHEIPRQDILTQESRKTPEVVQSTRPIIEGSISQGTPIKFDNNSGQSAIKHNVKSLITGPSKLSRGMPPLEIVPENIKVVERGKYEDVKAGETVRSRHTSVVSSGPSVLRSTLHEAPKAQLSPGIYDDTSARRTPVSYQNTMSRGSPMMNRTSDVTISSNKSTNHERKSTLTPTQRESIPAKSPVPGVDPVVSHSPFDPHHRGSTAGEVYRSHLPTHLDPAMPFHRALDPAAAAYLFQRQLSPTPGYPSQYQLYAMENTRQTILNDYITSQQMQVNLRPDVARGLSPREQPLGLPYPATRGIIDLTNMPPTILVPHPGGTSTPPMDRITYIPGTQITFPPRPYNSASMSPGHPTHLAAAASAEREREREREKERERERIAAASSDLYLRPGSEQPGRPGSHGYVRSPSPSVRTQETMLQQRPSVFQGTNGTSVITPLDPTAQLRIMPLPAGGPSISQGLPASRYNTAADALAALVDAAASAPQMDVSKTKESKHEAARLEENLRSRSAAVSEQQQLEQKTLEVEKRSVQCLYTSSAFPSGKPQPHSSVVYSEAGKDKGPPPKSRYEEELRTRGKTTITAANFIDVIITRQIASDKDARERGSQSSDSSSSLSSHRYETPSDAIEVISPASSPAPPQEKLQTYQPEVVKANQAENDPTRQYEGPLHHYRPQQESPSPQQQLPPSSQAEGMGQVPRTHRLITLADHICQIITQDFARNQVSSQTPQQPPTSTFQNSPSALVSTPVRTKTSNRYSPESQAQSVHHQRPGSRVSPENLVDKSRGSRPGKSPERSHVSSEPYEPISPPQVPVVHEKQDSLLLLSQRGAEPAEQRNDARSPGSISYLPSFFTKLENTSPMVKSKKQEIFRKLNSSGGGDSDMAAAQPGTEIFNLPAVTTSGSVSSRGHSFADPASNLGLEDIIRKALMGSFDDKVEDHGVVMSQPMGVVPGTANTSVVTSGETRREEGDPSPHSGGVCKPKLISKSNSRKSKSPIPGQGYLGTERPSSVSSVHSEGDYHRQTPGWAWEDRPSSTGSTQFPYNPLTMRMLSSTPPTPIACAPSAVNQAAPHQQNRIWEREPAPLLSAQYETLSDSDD
# UniProt P13864: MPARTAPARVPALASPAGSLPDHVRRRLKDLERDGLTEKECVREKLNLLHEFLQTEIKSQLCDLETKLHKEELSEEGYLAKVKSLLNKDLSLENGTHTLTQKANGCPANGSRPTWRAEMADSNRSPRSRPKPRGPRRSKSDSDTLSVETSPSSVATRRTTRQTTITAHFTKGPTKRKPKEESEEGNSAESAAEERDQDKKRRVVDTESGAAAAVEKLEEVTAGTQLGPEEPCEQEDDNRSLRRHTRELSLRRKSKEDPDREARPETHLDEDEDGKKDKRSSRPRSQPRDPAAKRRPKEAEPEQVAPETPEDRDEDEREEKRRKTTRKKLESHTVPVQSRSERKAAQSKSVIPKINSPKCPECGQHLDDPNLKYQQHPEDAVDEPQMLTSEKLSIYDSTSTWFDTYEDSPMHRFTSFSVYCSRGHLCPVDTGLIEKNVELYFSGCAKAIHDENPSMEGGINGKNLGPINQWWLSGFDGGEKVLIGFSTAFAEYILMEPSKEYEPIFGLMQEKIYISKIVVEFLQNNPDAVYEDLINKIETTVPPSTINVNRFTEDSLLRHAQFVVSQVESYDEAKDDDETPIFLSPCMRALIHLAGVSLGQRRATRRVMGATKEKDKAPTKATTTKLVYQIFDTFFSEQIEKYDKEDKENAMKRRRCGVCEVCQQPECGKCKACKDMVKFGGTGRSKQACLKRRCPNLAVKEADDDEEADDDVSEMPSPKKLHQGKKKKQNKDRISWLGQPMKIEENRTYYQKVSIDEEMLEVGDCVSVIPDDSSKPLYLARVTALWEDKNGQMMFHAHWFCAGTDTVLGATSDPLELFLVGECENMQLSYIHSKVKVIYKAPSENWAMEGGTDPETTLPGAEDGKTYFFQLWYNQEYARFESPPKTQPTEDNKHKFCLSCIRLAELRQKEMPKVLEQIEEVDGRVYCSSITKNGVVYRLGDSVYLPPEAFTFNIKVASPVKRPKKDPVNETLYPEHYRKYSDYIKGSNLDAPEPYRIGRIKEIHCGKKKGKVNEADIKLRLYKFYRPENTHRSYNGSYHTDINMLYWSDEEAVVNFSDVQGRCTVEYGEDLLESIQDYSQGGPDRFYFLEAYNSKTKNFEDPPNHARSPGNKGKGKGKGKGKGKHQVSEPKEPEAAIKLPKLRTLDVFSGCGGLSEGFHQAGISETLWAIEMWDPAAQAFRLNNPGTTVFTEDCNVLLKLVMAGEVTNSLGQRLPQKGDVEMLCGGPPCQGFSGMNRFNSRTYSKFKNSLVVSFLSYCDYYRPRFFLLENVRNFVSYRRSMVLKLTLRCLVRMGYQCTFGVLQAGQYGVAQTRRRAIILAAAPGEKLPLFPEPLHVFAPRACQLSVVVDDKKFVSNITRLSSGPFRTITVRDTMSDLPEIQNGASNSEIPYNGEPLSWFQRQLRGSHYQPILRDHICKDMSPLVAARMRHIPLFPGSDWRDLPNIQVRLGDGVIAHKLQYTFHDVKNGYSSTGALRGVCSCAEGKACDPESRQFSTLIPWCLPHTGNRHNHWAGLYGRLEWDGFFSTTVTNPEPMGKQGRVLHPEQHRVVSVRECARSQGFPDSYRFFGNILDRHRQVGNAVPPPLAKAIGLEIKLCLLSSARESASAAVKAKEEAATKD
# Results are given in words; binding and its absence hold for the method and conditions named. For part of these data: In cells and extracts the contact can be indirect. Some binding calls cover weakened binding; strength is not graded here. For part of these data: Tags and fused reporters may be left off the sequences shown.
# Experiments:
# [1] = molecular target: hBACH2 GAL4-DBD fusion (pFN26A-hBACH2) (human) (UniProt Q9BYV9); assay: two-hybrid; mammalian two-hybrid in HEK293T as above, with co-expressed wild-type human TBK1 (pCAG-hTBK1)
# [2] = molecular target: hBACH2 GAL4-DBD fusion (pFN26A-hBACH2) (human) (UniProt Q9BYV9); assay: two-hybrid; mammalian two-hybrid in HEK293T: GAL4-DBD fusion (pFN26A) and VP-16 AD fusion (pFN10A), pGL4.35-9xGAL4UAS-Luc reporter; also with co-expressed TBK1 or TBK1(S172A) and the TBK1 inhibitor MRT67307
# [3] = molecular target: FLAG-HA-BACH2-IDR (mouse) (UniProt P97303); assay: co-IP; ReCLIP anti-FLAG purified samples from BAL17 cells expressing FLAG-HA-BACH2-IDR, immunoblot with anti-TBK1 or anti-DNMT1
# GST-BACH2-IDR (mouse) = GST-BACH2-IDR (mouse) (UniProt P97303); assay: pull-down; 2 μg GST-BACH2-IDR on Glutathione Sepharose beads with BAL17 whole cell lysate, with or without heme, 2 h at 4°C; 20 mM HEPES pH 7.0, 50 mM NaCl; immunoblot; only the target purified
# FLAG-FBXO22 (mouse) = molecular target: T1, FLAG-FBXO22 (mouse) (UniProt Q78JE5); assay: co-IP; FLAG-FBXO22 and BACH2 overexpressed in HEK293T; immunoprecipitation with anti-FLAG, immunoblot with anti-FLAG or anti-BACH2
# T1 sequence: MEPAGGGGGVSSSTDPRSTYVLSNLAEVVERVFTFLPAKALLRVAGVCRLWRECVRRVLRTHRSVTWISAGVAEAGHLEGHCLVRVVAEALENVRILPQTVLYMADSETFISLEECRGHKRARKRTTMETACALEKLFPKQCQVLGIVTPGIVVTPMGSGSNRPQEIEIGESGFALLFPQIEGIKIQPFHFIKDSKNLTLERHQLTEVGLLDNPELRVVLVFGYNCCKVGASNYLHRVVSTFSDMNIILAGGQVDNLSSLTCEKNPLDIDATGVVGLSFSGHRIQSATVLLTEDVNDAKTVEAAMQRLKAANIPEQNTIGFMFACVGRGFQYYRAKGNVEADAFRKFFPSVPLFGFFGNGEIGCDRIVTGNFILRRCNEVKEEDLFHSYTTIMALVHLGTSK
# [4] = molecular target: hBACH2 BTB GAL4-DBD fusion (pFN26AhBACH2-BTB) (human) (UniProt Q9BYV9); assay: two-hybrid; mammalian two-hybrid in HEK293T: GAL4-DBD fusion (pFN26A) and VP-16 AD fusion (pFN10A), pGL4.35-9xGAL4UAS-Luc reporter; also with co-expressed TBK1 or TBK1(S172A) and the TBK1 inhibitor MRT67307
substance,measurement,setting,value
hNCOR1 VP-16 AD fusion (pFN10A-hNCOR1) (from UniProt O75376 1-2440),binding,[1],no binding (condition: with co-expressed wild-type TBK1)
same,binding,[2],binds
DNA (cytosine-5)-methyltransferase 1 (from UniProt P13864 1-1620) (enzyme),binding,[3],binds
same,binding,GST-BACH2-IDR (mouse),binds
BACH2 overexpressed in HEK293T cells (from UniProt P97303 1-839),binding,FLAG-FBXO22 (mouse),binds
hFBXO22 VP-16 AD fusion (pFN10A-hFBXO22) (from UniProt Q8NEZ5-1 1-403),binding,[4],binds
